Test results taken from a compilation of properties of binary mixtures (doi:10.1016/j.molliq.2019.110987).
Some of these densities may be calculated back from excess volumes.

Experiment: xn = mol fraction of the nth substance listed
Conditions: 100 kPa

CN(C)C=O + CCCC[P+](C)(CCCC)CCCC.COS(=O)(=O)[O-]
x2 = 0
Conditions	mass density [kg/m3]
293.15 K	949
298.15 K	944.5
303.15 K	940
313.15 K	931.1
318.15 K	926.5

CCCC[P+](C)(CCCC)CCCC.COS(=O)(=O)[O-] + CN(C)C=O
mass density [kg/m3]
Conditions	293.15 K	298.15 K	303.15 K	308.15 K	313.15 K	318.15 K	323.15 K
x1 = 0.0474	968.3	964.9	961.8	958.4	–	950.5	945.8
x1 = 0.0765	978.3	975.2	–	968.4	964.9	961	956.2
x1 = 0.1106	988.3	984.7	981.6	978.6	975	971.4	966.5
x1 = 0.1508	996.6	993.6	991	987.6	984	980.5	–
x1 = 0.1991	1004.1	1000.9	999.1	996	993	989.6	985.5
x1 = 0.2582	1011.5	1008.6	1006.3	1003.9	1000.5	–	994
x1 = 0.3321	–	1016.2	1013.9	1010.8	1007.9	–	1001.8
x1 = 0.4272	–	1024.1	1021.6	1019	1016	1013.5	1010.3
x1 = 0.5542	1036.5	1034	1031.6	1028.8	1025.7	1022.7	1019.6
x1 = 0.6717	1044.2	1041.6	1038.9	–	1033.4	1030.6	1027.5
x1 = 0.7768	1050	1047.7	1044.9	1041.8	1039.2	1036.5	1033.6
x1 = 0.8253	1052.7	1050.2	1047.6	1044.6	1041.8	1039	1036.1
x1 = 0.8837	1056.1	1053.3	–	1047.7	1044.7	1041.7	–
x1 = 0.9362	–	1055.9	1053.1	1050.1	1047.1	1044.2	1041.2
x1 = 1	1061.7	–	1055.6	1052.5	–	1046.5	1043.4
